Out of some 71,000 compounds screened, about 1,800 (2.5%) were called active. This list was built around the results that the source calls inconclusive (neither active nor inactive); the mix of calls is not that of the screen. Calls come from the whole dose curve; as a rule, active = well fitted activation curve with a large enough effect in the signal ratio, with a control signal flat (not every such curve was filed as active); inconclusive = small, poorly fitted or top-dose-only effect, or effect the other way, or a change in a side signal; inactive = flat fitted curve, though single readings scatter; the % refers to the signal ratio. Potencies beside an inconclusive call are fits to weak or partial responses and may not hold up.
Experiment: Cell signaling CRE-BLA (Fsk stim); for activity change, negative = inhibition: % of control where 0% means no effect
Conditions: CHO CRE-bla reporter (cAMP response element driving beta-lactamase), forskolin EC10, beta-lactamase ratio
Method in brief: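 Modulation of forskolin signalling: compounds in titration series added with EC10 NKH 477 to CHO cells carrying a CRE-driven beta-lactamase reporter, 3 h, 37C. CCF4 FRET ratio (460/530 nm, ex 405 nm) gives %activity and AC50.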

[1] = activity change, negative = inhibition: at 38.2 µM (top of the series) unless noted
Potency is the fitted concentration of half-maximal effect; tags give direction and shape of the fitted curve.

## CCN(C(=O)CCc1nc(-c2ccc(OC)cc2)no1)c1cc(OC)ccc1OC
[1]
  Potency: inconclusive: 12.6 µM [rising, single point]

## O=C(O)/C=C\c1cnc[nH]1
[1]
  activity change, negative = inhibition: inactive

## CCCCCCn1c(NCC)nc2c1c(=O)[nH]c(=O)n2C
[1]
  activity change, negative = inhibition: inactive

## Fc1cccc(Nc2cc(-n3cccn3)ncn2)c1
[1]
  activity change, negative = inhibition: inactive

## Cc1ccc(CCNC(=O)CC2Oc3ccc(C)cc3NC2=O)cc1 (configuration not stated)
[1]
  activity change, negative = inhibition: inactive

## O=C(COc1ccc(Cl)cc1Cl)Nc1ccccn1
[1]
  activity change, negative = inhibition: inconclusive: -7.54%

## COc1cc(-c2c(C#N)c(N)nc(SCc3ccncc3)c2C#N)cc(OC)c1OC
[1]
  activity change, negative = inhibition: inactive

## Cn1cc(-c2nc3cncnc3n(CCN)c2=O)c2ccccc21
[1]
  Potency: inconclusive: 10 µM [rising, partial curve]

## CC1(C)C(=O)Nc2ccccc2N1C(=O)COc1ncnc2ccccc12
[1]
  Potency: inconclusive: 3.98 µM [falling, partial curve]

## CCc1cc2c(-c3ccccc3)cc(=O)oc2c(CN2CCOCC2)c1O
[1]
  Potency: inconclusive: 2.51 µM [rising, full curve, poor fit]

## CSc1ncc(Cl)c(C(=O)NCc2ccc3c(c2)OCO3)n1
[1]
  Potency: inconclusive: 25.1 µM [rising, single point]

## COc1cc(C(c2sc3nc(C)nn3c2O)N2CCOCC2)cc(OC)c1OC (configuration not stated)
[1]
  activity change, negative = inhibition: inactive

## COc1ccc(Cn2nnnc2C(c2cccs2)N2CCN(c3ccccc3)CC2)cc1 (configuration not stated)
[1]
  activity change, negative = inhibition: inconclusive: -8.38%

## CC[C@@H]1OC(=O)[C@H](C)[C@H](O[C@@H]2C[C@](C)(OC)[C@H](O)[C@H](C)O2)[C@H](C)[C@H](O[C@@H]2O[C@@H](C)C[C@@H](N(C)C)[C@@H]2O)[C@](C)(O)C[C@H](C)C(=NOCOCCOC)[C@H](C)[C@H](O)[C@]1(C)O
[1]
  activity change, negative = inhibition: inactive

## CCOC(OCC)P(=O)(O)CCCNCc1ccc(Cl)c(Cl)c1
[1]
  activity change, negative = inhibition: inactive

## CCCn1c(NC(=O)c2ccc(C)cc2)nc2ccccc21
[1]
  Potency: inconclusive: 5.01 µM [falling, single point]

## O=C(Cn1c(=O)n(-c2ccccc2)c(=O)c2sccc21)N1CCCC1
[1]
  activity change, negative = inhibition: inconclusive: -14.9%

## CCOc1ccc(OCC)c(NC(=O)C2CCN(S(=O)(=O)c3cccc4nonc34)CC2)c1
[1]
  activity change, negative = inhibition: inconclusive: -3.82%

## Cc1ccc(Nc2nc(C(=O)N3CCC(C(=O)NCCN4CCOCC4)CC3)cs2)cc1
[1]
  Potency: inconclusive: 5.01 µM [falling, single point]

## COC(=O)C1=C(C)Nc2nnnn2C1c1cc(OC)ccc1OC (configuration not stated)
[1]
  activity change, negative = inhibition: inconclusive: 18.3% [at 7.6 µM]

## CN(CCNC(=O)c1ccc(N2CCCC2=O)cc1)CCc1ccccc1
[1]
  activity change, negative = inhibition: inconclusive: 6.24%

## COc1cc2ccccc2cc1C(=O)Nc1ccc(S(=O)(=O)Nc2cc(C)on2)cc1
[1]
  Potency: inconclusive: 15.8 µM [rising, partial curve]

## C=CCNc1ncnc2c1[nH]c1ccc(C)cc12
[1]
  activity change, negative = inhibition: inactive

## Cc1onc(-c2c(Cl)cccc2Cl)c1C(=O)Nc1c(C)n(C)n(-c2ccccc2)c1=O
[1]
  activity change, negative = inhibition: inactive

## CCn1c(=S)sc2c(=O)n(-c3ccccc3)c(SC)nc21
[1]
  Potency: inconclusive: 12.6 µM [rising, single point]

## CCC(C)(C)NC(=O)C(c1ccncc1)N(Cc1cccs1)C(=O)Cn1nnc2ccccc21 (configuration not stated)
[1]
  activity change, negative = inhibition: inactive

## CCNC(=O)c1ccc2c(c1)S(=O)(=O)c1ccccc1C2=O
[1]
  Potency: active: 7.94 µM

## O=C(Nc1nnc(C2CCCCC2)s1)c1ccc(Br)s1
[1]
  activity change, negative = inhibition: inconclusive: 16.4%

## COc1ccccc1N(CC(=O)NCCSC(C)(C)C)S(C)(=O)=O
[1]
  Potency: inconclusive: 2.51 µM [falling, partial curve]

## CNC(=O)CSc1nc2c(c(=O)n(C)c(=O)n2C)n1Cc1ccc(C)cc1
[1]
  activity change, negative = inhibition: inactive

## c1ccc2c(N3CCCC3)nc(-c3ccncc3)nc2c1
[1]
  Potency: inconclusive: 10 µM [rising, partial curve]

## CC1=Nc2ncnn2C(c2ccccc2)/C1=N\O (configuration not stated)
[1]
  activity change, negative = inhibition: inconclusive: -3.61%

## CC(C)(C)c1ccc([C@@H](O)CCCN2CCC(C(O)(c3ccccc3)c3ccccc3)CC2)cc1
[1]
  activity change, negative = inhibition: inconclusive: -6.04% [at 17.1 µM]
At 38.2 µM (top of the series)
  activity change, negative = inhibition: inactive: -11.1%

## O=S(=O)(Nc1ccc2c(c1)OCCO2)c1cccc2nsnc12
[1]
  activity change, negative = inhibition: inactive

## CC(C)(C)NC(=O)CSc1ncnc2c1nnn2Cc1ccccc1Cl
[1]
  activity change, negative = inhibition: inconclusive: -26.2%

## CCCS(=O)(=O)NCCc1cc2c(OC)ccc(OC)c2[nH]c1=O
[1]
  Potency: inconclusive: 25.1 µM [rising, single point]

## Cc1cc(C(=O)NCCCn2ccnc2)sc1-c1ccccc1
[1]
  activity change, negative = inhibition: inconclusive: 14.6%

## COC(=O)c1ccc(C(NC(=O)OCc2ccccc2)/C(=C/[C@@H](C)C(=O)NCc2ccc(-c3ccccc3)cc2)c2cccnc2)cc1 (some centres not stated)
[1]
  activity change, negative = inhibition: inconclusive: -5.23%

## CN1C(=O)C(O)(C2COC(C)(C)CC2=O)c2cc(Br)ccc21 (configuration not stated)
[1]
  Potency: inconclusive: 25.1 µM [rising, single point]

## COc1ccc(-c2ccc(=O)n(CC(=O)Nc3cccc(O)c3)n2)cc1OC
[1]
  Potency: inconclusive: 12.6 µM [rising, partial curve]

## COCCCNc1oc(-c2ccccc2F)nc1C#N
[1]
  Potency: inconclusive: 7.94 µM [rising, partial curve]

## COc1ccccc1NC(=O)C1CCCCN1S(=O)(=O)c1ccc(F)cc1 (configuration not stated)
[1]
  activity change, negative = inhibition: inconclusive: -0.17%

## CC(=O)/C(C[N+]1(C)CCCCC1)=N\O
[1]
  activity change, negative = inhibition: inactive

## Cc1nnc2c(-c3ccccc3)nc3ccccc3n12
[1]
  Potency: inconclusive: 5.01 µM [rising, partial curve]

## O=C(c1ccncc1)N1CCC2(CC1)CCN(c1ccncc1)CC2
[1]
  activity change, negative = inhibition: inactive

## CC(=O)N1CCC(N2CCN(c3ccccc3F)CC2)CC1
[1]
  activity change, negative = inhibition: inactive

## O=C(O)CNCCc1ccccc1
[1]
  activity change, negative = inhibition: inactive: -0.803% [at 7.6 µM]

## O=C(NCCc1c[nH]c2ccccc12)[C@@H]1C[C@H]1[C@@H](NP(=O)(c1ccccc1)c1ccccc1)c1ccccc1
[1]
  activity change, negative = inhibition: inactive

## CCn1c(COc2cccc3ccccc23)nnc1SCC(N)=O
[1]
  activity change, negative = inhibition: inactive

## CN1CCN(c2ncnc3ccc(-c4ccc(C(=O)N(C)C)cc4)cc23)CC1
[1]
  activity change, negative = inhibition: inconclusive: 14.1%

## Oc1ccccc1-c1cc(-c2ccccc2Cl)[nH]n1
[1]
  activity change, negative = inhibition: inactive

## CCOC(=O)N1CCN(C(=O)c2oc3ccc(S(=O)(=O)N4CCCCC4)cc3c2C)CC1
[1]
  activity change, negative = inhibition: inactive

## Nc1nsc2ccccc12
[1]
  Potency: inconclusive: 2.51 µM [falling, partial curve]

## COC(=O)CC[C@@H](C)[C@H]1CC[C@H]2[C@H]3CC[C@H]4C[C@@H]5CC[C@@]4(C)C3(O5)[C@@H](Br)[C@@H](Br)[C@@]12C
[1]
  activity change, negative = inhibition: inactive: 9.96% [at 7.6 µM]

## Cc1nc2nc(SCC(=O)NCc3ccco3)nn2c(C)c1Cc1c(F)cccc1Cl
[1]
  activity change, negative = inhibition: inconclusive: 15.2%

## COc1cc2nc(SCC(=O)NCCc3ccccc3)n(Cc3ccco3)c(=O)c2cc1OC
[1]
  Potency: inconclusive: 6.31 µM [rising, partial curve]

## COc1cccc(C2C3=C(CCCC3=O)Nc3nc4ccccc4n32)c1OC (configuration not stated)
[1]
  activity change, negative = inhibition: inconclusive: 0.627%

## Clc1ccc2nc3ccccn3c2c1
[1]
  activity change, negative = inhibition: inactive

## CCOC(=O)C1CCCN(C(=O)c2ccccc2Oc2ccccc2)C1 (configuration not stated)
[1]
  activity change, negative = inhibition: inconclusive: 18.6% [at 7.6 µM]

## Cc1ccc(Nc2nc3nonc3[nH]c2=O)cc1
[1]
  activity change, negative = inhibition: inconclusive: 14.6%

## CCCCC(=O)Nc1ccc(Br)cc1C(=O)O
[1]
  activity change, negative = inhibition: inactive

## O=S1(=O)N=C2CCCN2C(c2ccc(F)cc2)N1 (configuration not stated)
[1]
  activity change, negative = inhibition: inconclusive: -2.06%

## Cc1ccc(C)c(NC(=O)C2CC(O)CN2C(=O)OC(C)(C)C)c1 (configuration not stated)
[1]
  activity change, negative = inhibition: inactive

## Cc1ccc(-c2cc(-c3ccccc3Cl)c(C#N)c(N)n2)o1
[1]
  Potency: inconclusive: 12.6 µM [rising, single point]

## COc1ccccc1CNC(=O)CN(c1ccc(C)cc1)S(=O)(=O)c1c(C)nn(C)c1C
[1]
  activity change, negative = inhibition: inconclusive: -21.4%

## CC1CC1C(=O)OCc1cc(=O)n2cc(Br)ccc2n1 (configuration not stated)
[1]
  activity change, negative = inhibition: inconclusive: 28.1%

## c1cn2cc(-c3ccc4c(c3)OCO4)nc2s1
[1]
  activity change, negative = inhibition: inconclusive: -0.967%

## C=CCn1c(CC(=O)OC)csc1=Nc1ccc(C(C)=O)cc1
[1]
  activity change, negative = inhibition: inconclusive: 18.4%

## COc1ccc(CCNS(=O)(=O)c2ccc3c(c2)OCCO3)cc1
[1]
  activity change, negative = inhibition: inactive

## c1ccc2c(c1)Cn1nnnc1-2
[1]
  activity change, negative = inhibition: inactive

## N#CCCn1c(=O)c(-c2ccc(F)cc2)nc2cnc(Oc3cccc(Cl)c3)nc21
[1]
  Potency: inconclusive: 10 µM [rising, partial curve]

## O=c1c(-c2ccc(Br)cc2)coc2c(CN3CCOCC3)c(O)ccc12
[1]
  activity change, negative = inhibition: inactive

## CN1CCc2cc3c(c4c2C1CC41CCC(=NO)CC1)OCO3 (configuration not stated)
[1]
  activity change, negative = inhibition: inconclusive: 12.4%

## COc1ccc(N(C)C(=O)CCC(=O)Nc2ccc3nc(N4CCOCC4)cc(C)c3c2)c(OC)c1
[1]
  Potency: inconclusive: 12.6 µM [rising, single point]

## O=C(c1ccc(N2CCNCC2)cc1)c1cccnc1
[1]
  activity change, negative = inhibition: inconclusive: -16%

## COc1cc(-c2nn3c(-c4cccc(C)c4)nnc3s2)cc(OC)c1OC
[1]
  Potency: active: 1.58 µM

## Cc1cc(N2CCCC2)ccc1/C=N/n1cnnc1
[1]
  Potency: inconclusive: 3.16 µM [rising, partial curve]

## CCN(CC)S(=O)(=O)c1ccc2[nH]cc(C(=O)NCCC3=CCCCC3)c(=O)c2c1
[1]
  Potency: inconclusive: 12.6 µM [falling, single point]

## c1ccc(-c2ccccc2-c2nc(-c3cccnc3)no2)cc1
[1]
  Potency: active: 10 µM

## CN(C1CCCCC1)S(=O)(=O)c1ccc(NC(=O)c2ccco2)cc1
[1]
  Potency: inconclusive: 10 µM [rising, partial curve]

## Cc1cccc(Nc2nc(N)nc(CN3CCN(c4ccccc4)CC3)n2)c1
[1]
  activity change, negative = inhibition: inconclusive: 8.24%
